# US20100124555A1, “Compositions and Methods for Treating Pancreatic Tumors” (UNIVERSITE DE LA MEDITERRANEE, priority 2007, published 2010)
# B1: rec16D10: chimeric antibody comprising the variable domains of mouse 16D10 and the constant (Fc) domains of a human IgG1 antibody, produced in HEK293T cells (antibody)
# heavy: QVQLQQSDAELVKPGASVKISCKASGYTFTDHAIHWVKQKPEQGLEWIGYISPGNDVIKFNEKFKGKATLTADKSSSTAYMQLNSLTSEDSAVYFCKRSEGGVFDYWGQGTTLTVSSESQSFPNVFPLVSCESPLSDKNLVAMGCLARDFLPSTISFTWNYQNNTEVIQGIRTFPTLRTGGKYLATSQVLLSPKSILEGSDEYLVCKIHYGGKNRDLHVPIPGTEPKSADKTH[omitted - human IgG1 Fc]
# light: NIMMTQSPSSLAVSAGEKVTMSCKSSQSVLYSSNQKNFLAWYQQKPGQSPKLLIYWASTRESGVPDRFTGSGSGTDFTLTISSVQAEDLAVYYCHQYLSSYTFGGGTKLEIKRADAAPTVSIFPPSSEQLTSGGASVVCFLNNFYPKDINVKWKIDGSERQNGVLNSWTDQDSKDSTYSMSSTLTLTKDEYERHNSYTCEATHKTSTSPIVKSFNRNEC
# Columns and labels:
# [1] = tested on: 16D10 antigen on SOJ-6 cells; assay: Flow cytometry detection of antigen at the cell surface, SOJ-6; type: binding, human
# Description: Detection of antigens at the surface of SOJ-6 and PANC-1 cells was carried out by indirect fluorescence under the following conditions: cells were released from culture plates by treatment with a non enzymatic dissociation liquid (Calbiochem) for 15 minutes at 37° C. All subsequent steps were carried out at 4° C. The cells were washed with phosphate buffered saline (PBS), fixed with 2% paraformaldehyde in PBS for 15 minutes, and washed with 1% BSA in PBS for 15 minutes. Antigens were exposed for 2 hours to specific antibodies, washed with PBS, and finally incubated for 45 minutes with appropriate FITC-labeled secondary antibodies. Cells were then washed, resuspended in isoflow buffer, and analyzed on Coulter FACSCalibur device.
# Flow cytometry experiments were carried out to investigate whether the antigen recognized by 16D10 was found on the surface of cells. Results are shown in FIGS. 14 and 15, representing SOJ-6 and PANC-1 cells, respectively. […] In each case, 16D10 binding was compared to a negative control and a control mouse IgM (Sigma).
# [2] = tested on: SOJ-6 cells; assay: Effect of antibodies on SOJ-6 cell proliferation (Example 11); type: cell-based, human
# Description: The effects of the IgM antibody 16D10 and the chimeric antibody rec16D10 on the proliferation of SOJ-6 cells were examined. Cells were incubated in culture with no antibodies, with various amounts of 16D10 or rec16D10 antibodies, or with an irrelevant IgG antibody. Antibody 16D10 reduced cell proliferation by approximately 50% at either 25 or 50 μg/ml, while rec16D10 reduced proliferation by more than 20% and more than 35% at 25 and 50 μg/ml, respectively (FIG. 18).
# [3] = tested on: NK cells; assay: NK cell activation (ADCC): CD107 mobilization and IFN-γ production by flow cytometry; type: cell-based, human; details: presence of SOJ-6 cells
# Description: Thawed purified human NK cells stimulated or not overnight with 100 UI/mL of IL-2 were mixed with SOJ-6 or B221 cell lines at an effector/target ratio equal to 1, alone or in the presence of rec16D10 (30 μg/mL) or rituxan (10 μg/mL). Cells were then incubated for 4 hours at 37° C. in the presence of FITC conjugated anti-CD107 mAbs (Becton Dickinson) and monensin (sigma). After incubation, cells were washed in PBS containing 2 mM EDTA to disrupt cell conjugates and stained for extracellular markers (PC5 conjugated anti-CD56 and PC7 conjugated anti-CD3 purchased from Beckman coulter). Cells were then fixed and permeabilized using IntraPrep reagent (Beckman Coulter). […] Samples were then analysed on FACScanto (Becton Dickinson).
# The chimeric antibody rec16D10 (30 μg/ml) was incubated with target SOJ-6 cells together with NK cells, with or without overnight treatment with IL-2 (100 U/ml) (FIG. 19). As a control, the Rituxan antibody (10 μg/ml) was used with target B221 cells. Effector cells and target cells were used at a ratio of: 1/1 (100000 NK/well). Thawed purified NK cells from two donors (NK1 and NK2) were incubated with the antibodies and target cells. Activation of NK cells was examined by virtue of CD 107 staining and IFN-γ secretion. […] Under similar conditions, approximately 30% of NK1 and NK2 cells secreted IFN-γ (vs. less than 16% and 13% in the absence of antibody or with Rituxan in NK1 and NK2 cells, respectively) (FIG. 21).
# [4] = Tissue cross-reaction study (staining of healthy tissues); details: non-specific crossreactivity
# Description: The staining specificity of the IgM 16D10 and chimeric IgG rec16D10 antibodies was assessed by examining their respective staining of various healthy tissues. […] Staining with the chimeric antibody reel 6D10, in contrast, was negative on each of these healthy tissues.
# [5] = tested on: cell surface antigens of fixed SOJ-6 cells; assay: FACS cell surface binding stability on fixed SOJ-6 cells; design: species or system human; details: estimated from half-life assuming kon 5×10^5 to 5×10^6 M^−1s^−1
# Text: Taking in account that most of the antibodies that have been studied so far at Innate Pharma, have kon rate association constants ranging from 5×10^5 to 5×10^6 M^−1s^−1, one can estimate that the recombinant 16D10 antibody bivalent affinity is in the nanomolar order (e.g., 10 to 1 nanoM) which is compatible with the industrial development of a therapeutic antibody.
molecule,measurement,setting,value
B1,effect of trypsin incubation on binding to SOJ-6 cells,[1]; antibody incubated with trypsin,substantially decrease the binding
same,binding to antigen on SOJ-6 cells,[1]; flow cytometry / FACS,activity was confirmed by FACS on SOJ-6 cells
same,reduction of SOJ-6 cell proliferation,[2]; 25 μg/ml,more than 20%
same,reduction of SOJ-6 cell proliferation,[2]; 50 μg/ml,more than 35%
same,NK1 cells secreting IFN-γ,"[3]; donor NK1, IL-2 treated",approximately 30%
same,CD 107-positive staining of NK1 cells,"[3]; donor NK1, IL-2 treated, E/T 1/1, rec16D10 30 μg/ml, Rituxan 10 μg/ml",approximately 53%
same,NK2 cells secreting IFN-γ,"[3]; donor NK2, IL-2 treated",approximately 30%
same,CD 107-positive staining of NK2 cells,"[3]; donor NK2, IL-2 treated, E/T 1/1, rec16D10 30 μg/ml, Rituxan 10 μg/ml",~45%
same,"staining of healthy tissues (tonsils, salivary gland, peripheral nerve, eyes, bone marrow, ovary, oviduct, parathyroid, prostate, spleen, kidney, adrenals, testes, thymus, ureters, uterus, bladder)",[4],negative
same,bivalent affinity,[5],10 to 1 nanoM
